In PubChem BioAssay AID1963576 (National Center for Advancing Translational Sciences (NCATS), 2024):
Among all 46,000 compounds or so, about 60 (0.1%) were called active. Another 3% or so got no clear call; they are omitted. Calls come from the whole dose curve; as a rule, active = well fitted inhibition curve with a large enough effect; inconclusive = small, poorly fitted or top-dose-only effect; inactive = no such curve, though single readings can be large or run the other way. The list shows a part of the results.

Assay: Primary qHTS assay for Inhibitors of ovarian cancer metastasis using an organotypic tumor microenvironment (TME) model.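 For activity change, negative = inhibition: plate controls were DMSO wells for no effect and tomatine positive control wells for full effect.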 Note: nearly all actives have a fitted effect of over 65% in size.
Conditions: SKOV3ip1-GFP adhesion/invasion on 3D omental model, fluorescence; series mostly up to 45.8 µM; activity change, negative = inhibition: at the top concentration
Outline: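 A 3D layer of primary human omental fibroblasts, mesothelial cells, fibronectin and collagen I, grown 48 hr, received SKOV3ip1-GFP cells in serum-free medium plus compounds at 0.36-46 umol/L. After 2 hr RT and 16 hr 37 C, fixed adherent GFP cells were counted; normalized to DMSO and tomatine.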

outcome, inactive:
CCOC(=O)C(C)Sc1nnc2ccc3ccccc3n12 (stereo unspecified)
CCOc1ccc(NC(=O)N(Cc2c[nH]c3ccccc23)C2CCCCC2)cc1
COc1cc(OC)c(NC(=O)CCn2cnc3onc(-c4ccc(F)cc4)c3c2=O)cc1Cl
Cc1ccc2c(c1)c(=O)c(C(=O)c1ccncc1)cn2CC(=O)Nc1c(C)cccc1C
CC(NC(=O)CN(C)S(=O)(=O)c1ccc2c(c1)c(=O)n(C)c(=O)n2C)c1ccccc1 (stereo unspecified)
Cc1ccc2nc(N(Cc3cccnc3)C(=O)C3CCCCC3)sc2c1
CCc1cccc(NC(=O)CN2C(=O)CCc3cc(S(=O)(=O)N4CCOCC4)ccc32)c1
CCc1ccc2nc(N3CCC(C(=O)O)CC3)sc2c1
CCN(CC)c1cc(C)nc2nc(-c3ccc(C)cc3)nn12
O=C(CN1C(=O)CC(c2ccco2)Sc2ccccc21)Nc1cccc(C(F)(F)F)c1 (stereo unspecified)
Cc1ccc(-c2nc(C)c(CCNC(=O)C(=O)Nc3cc(C)ccc3C)s2)cc1
Cc1ccccc1CN1c2ccccc2-c2nc(SCC(=O)c3ccc(Cl)cc3)ncc2S1(=O)=O
Cc1csc2nc(-c3cccc(NS(C)(=O)=O)c3)cn12
Cc1ccc(-c2n[nH]c3c2C(c2ccccc2Cl)N(c2ccc(C(=O)O)cc2)C3=O)cc1 (stereo unspecified)
Cc1oc2ccc(NS(=O)(=O)c3ccc(F)cc3)cc2c1C(=O)O
Cc1c(CN(C)C(=O)c2cc(-c3ccccc3)nc3ccc(Br)cc23)cnn1C
COc1cc(CNCCSc2nnnn2C)ccc1OCc1ccccc1C
COc1ccc(OC)c(NC(=O)N2CC(C)Oc3ccc(C)cc32)c1 (stereo unspecified)
CCOc1ccc(C(=O)Nc2ccc3oc(-c4cccc5ccccc45)nc3c2)cc1
O=C(CN1CCN(Cc2ccc(F)cc2Cl)C1=O)NCCc1ccc(Cl)cc1
COc1ccc(Cl)cc1NC(=O)CSc1nnc2[nH]c(=O)cc(C)n12
COc1ccccc1CNc1ncnc2c1c(-c1ccccc1)cn2-c1ccc(Br)cc1
COC(=O)c1cc(S(=O)(=O)N2CCN(c3cc(Cl)ccc3C)CC2)c[nH]1
Cc1ccc2c(c1)-c1c(cnn1CC(=O)N1CCN(c3cc(C)ccc3C)CC1)CO2
COCCc1nn2c(=O)cc(COC(=O)c3ccco3)nc2s1
COc1ccc(CCNC(=O)c2ccc(Cn3c(=O)c4ccccc4n(Cc4ccc(F)cc4Cl)c3=O)cc2)cc1OC
CC(C)(C)c1ccc(C(=O)Nc2ccc(OCc3cc(=O)n4ccsc4n3)cc2)cc1

Activity change, negative = inhibition, inactive:
Cc1ccc(S(=O)(=O)Nc2cccc(-c3ccc(N4CCCCC4)nn3)c2)s1 -1.27%
Nc1cc(=O)nc(SCC(=O)Nc2ccc(F)cc2)n1-c1ccc(Cl)cc1 1.07%
Cc1oc(-c2cccc(Cl)c2)nc1CN1CCC(C(=O)NCCCN2CCN(c3cccc(Cl)c3)CC2)CC1 0.627%
CCCCNC(=O)c1[nH]c2ccccc2c1Sc1ccc(C)cc1 15.1%
Cc1ccc(CNCc2c(C(=O)O)n(Cc3ccccc3C)c3cc(C)ccc23)cc1 -8.55%
CCC[C@@H]1C[C@@H](C(=O)N[C@@H]([C@H]2O[C@H](SC)[C@H](O)[C@@H](O)[C@H]2O)[C@@H](C)O)N(C)C1 4.07%
CCc1ccc(NC(=O)CSc2nccn2C2CCCC2)cc1 -12.6%
Cc1ccc(C)c(S(=O)(=O)c2cnc(SCC(=O)Nc3ccc(F)cc3F)[nH]c2=O)c1 -1.89%
Cc1cc(=O)n(CC(=O)NCCC(C)C)c2c1c(C)nn2C 6.05%
Cn1cc(S(=O)(=O)N2CCCCC2)cc1C(=O)N1CCN(c2ccc(F)cc2)CC1 8.73%
Cc1cc2c(=O)c(C(=O)c3ccncc3)cn(CC(=O)Nc3cccc(C)c3C)c2cc1C -2.73%
Cc1oc(-c2ccc(C(=O)NCc3ccc(N(C)C)cc3)cc2)nc1COc1ccccc1 -16.3%
COc1ccc(NC(c2ccc(F)cc2)c2nnc(-c3ccccc3Cl)o2)cc1Cl (stereo unspecified) -9.81%
Cc1cccc(NC(=O)Cn2c(=O)oc3cc(S(=O)(=O)NCc4ccccc4)ccc32)c1 3.33%
COc1ccc(Br)cc1C1CC(=O)Nc2c1c(C)nn2-c1nc(C)cc(C)n1 (stereo unspecified) 2.66%
CCOC(=O)c1c(S(=O)(=O)N2CCCC(C(=O)N3CCN(c4ccc(F)cc4)CC3)C2)c(C)n(C)c1C (stereo unspecified) 1.41%
COc1ccc(CCNC(=O)Cn2nc(C)n3c(cc4occc43)c2=O)cc1OC -5.74%
COc1ccc(CCNC(=O)Cn2ncc3c(C)n(Cc4ccccc4F)c(C)c3c2=O)cc1OC 5.95%
Cc1c(C(N)=O)nnn1-c1ccc(Br)cc1 1.77%
CCN(CC)CCNC(=O)C1CCCN(c2ncnc3onc(C)c23)C1 (stereo unspecified) 1.79%
Cc1ccc(C)c(-c2csc(-c3c(N)c(C(=O)c4ccc5c(c4)OCO5)n4ccccc34)n2)c1 -5.66%
Cc1c(Cl)cccc1-n1c(CCC(=O)O)ccc1-c1cccs1 8.44%
CCC(C(=O)N1CCN(c2cc(Cl)ccc2C)CC1)n1nc(C)n2c(cc3occc32)c1=O (stereo unspecified) 4.1%
CCSc1nc2n(n1)C(c1ccc(CC)cc1)C(C(=O)Nc1ccccc1OC)=C(C)N2 (stereo unspecified) 0.821%
COc1ccc(Br)cc1CNC(=O)C(C)n1nc(C)n2c(cc3occc32)c1=O (stereo unspecified) 3.42%
COc1cc(CNCc2c(C(=O)O)c(C)n(Cc3cccc(Cl)c3)c2C)cc(OC)c1OC -9.27%
COc1ccc(N2CCN(C(=O)c3cc4c(=O)n(Cc5ccccc5)ccc4nc3C)CC2)cc1 0.82%
Cc1ccc(CN2CCSc3ccc(C(=O)Nc4ccc(F)cc4F)cc32)cc1 -5.63%
Cc1ccc2oc(C(=O)Nc3nnc(CC(C)C)s3)cc(=O)c2c1 8.88%
COc1ccc(CCNC(=O)C(=O)Nc2ccc(C)c(C)c2)cc1 1.73%
CC12CC3CC(C)(C1)CC(N)(C3)C2 0.954%
CCc1ccc(CNC(=O)c2cnc(N3CCCCC3)c3ccccc23)cc1 -6.63%
COc1ccc(S(=O)(=O)Nc2cccc(-c3ccc(N4CCCCCC4)nn3)c2)cc1F 3.79%
O=C(CSc1nc2c(c(=O)[nH]1)CCCC2)Nc1ccccc1C(F)(F)F -4.51%
CC(C)c1ccc(S(=O)(=O)c2cn(CC(=O)Nc3ccc(F)cc3)c3ccccc3c2=O)cc1 -10.1%
CN1C(C(=O)Nc2ccccn2)=C(O)c2sc(Cl)cc2S1(=O)=O -1.79%
CCOc1ccc(NC(=O)Cn2c(=O)cc(C)c3c(C)nn(C)c32)cc1 -4.56%
COCCCNC(=O)CCCN1C(=O)CCn2nc(-c3cccn3C)cc21 1.97%
CCc1ccccc1NC(=O)Cn1c(=O)n(Cc2ccccc2)c(=O)c2c(C)c(C(=O)N(C)C)sc21 3.95%
Cc1ccccc1-c1noc(-c2ccc(N3CCC(C)CC3)c([N+](=O)[O-])c2)n1 1.16%
CSc1ncc(Cl)c(C(=O)Nc2c(C(=O)Nc3cccc(C)c3)oc3ccccc23)n1 -15.6%
Cc1ccc(S(=O)(=O)c2c(Nc3ccc(C)c(C)c3)sc(C(=O)c3ccc4c(c3)OCO4)c2N)cc1 -1.43%
CCCOc1ccc(C2=NC(c3ccncc3)=Nc3ccc(C)cc3N2)cc1 -9.97%
Cc1ccccc1CNC(=O)c1ccc(NC(=O)N2CCCCc3ccccc32)cc1 -3.35%
O=C(Nc1c(C(=O)c2ccccc2)oc2ccccc12)c1ccc(F)cc1 6.28%
COc1ccc(CCN(C)CCCOc2ccc(S(=O)(=O)c3[nH]c4ccccc4c3C(C)C)cc2)cc1OC 6.65%
Cc1cc(C)n(CC(=O)Nc2cc(F)ccc2F)c(=O)c1C#N -7.13%
Cc1ccc(O)c(Nc2nc3ccccc3c3nncn23)c1 1.93%
COc1cccc(C(=O)Nc2ccc3nc4n(c(=O)c3c2)CCCCC4)c1 7.28%
Cc1ccc(C(=O)c2cn(CC(=O)NCc3ccccc3)c3nc(C)ccc3c2=O)cc1 5.36%
O=C1CN(C(=O)c2ccc(S(=O)(=O)N3CCCC3)cc2)C(c2ccccc2)c2cc(Cl)ccc2N1 (stereo unspecified) -6.59%
CC(C)c1nc2ccc(C(=O)NCCCN3CCN(c4ccccc4)CC3)cc2o1 3.19%
CC1CNc2c(cccc2S(=O)(=O)N[C@@H](CCCN=C(N)N)C(=O)N2CC[C@@H](C)C[C@@H]2C(=O)O)C1 (stereo partly specified) 0.933%
CCOc1ccc(-c2nc(C(N)=O)c3c(n2)n(-c2ccc4c(c2)OCO4)c(=O)n3CC)cc1 52.3%
CCN(CC)c1ccc(NC(=O)Cn2c3ncccc3c(=O)n2-c2ccccc2)c(C)c1 13%
Cc1ccc(C(=O)NCCC(C)C)cc1NC(=O)c1nsc2ccccc12 -22.9%
COc1cc2c(=O)c(C(=O)c3ccc(F)cc3)cn(Cc3cccc(F)c3)c2cc1OC -1.06%
Cc1ccc(CNC(=O)Cn2cc3c(n2)-c2c(oc(C(=O)N4CCOCC4)c2C)CC3)cc1 11.1%
Cc1cc(C)c2oc(C(=O)Nc3c(C(=O)c4ccccc4)oc4ccccc34)cc(=O)c2c1 17.2%
O=S(=O)(NCC(c1ccco1)N1CCOCC1)c1ccc(F)cc1 (stereo unspecified) -2.19%
CC1=C(C(N)=O)C(c2ccccc2F)n2nc(-c3ccc(Cl)cc3)nc2N1 (stereo unspecified) -5.96%
CC1CCN(c2csc3ccc(F)cc3c2=O)CC1 7.39%
Cc1ccccc1S(=O)(=O)Cc1ccc(C(=O)NCCc2ccccc2)o1 8.78%
Cc1ccccc1CNC(=O)C(=O)NCC(c1ccc2c(c1)OCO2)N1CCOCC1 (stereo unspecified) -11.1%
CN(CCCNC(=O)Cn1ncc2c([nH]c3ccccc32)c1=O)Cc1ccccc1 -7%
O=C(NCc1ccc(Cl)cc1)c1ccc(CNS(=O)(=O)c2ccc(F)cc2)cc1 -7.77%
Cc1cc(N2CCN(c3ccccc3)CC2)n2cnnc2n1 -15.7%
CC(=O)c1ccc(NC(=O)c2cc(S(=O)(=O)N3CCOCC3)ccc2C)cc1 0.841%
CCC(Sc1nc2cc(OC)c(OC)cc2c(=O)n1Cc1ccc(OC)cc1)C(=O)NCCOC (stereo unspecified) 0.563%
